# This is one part of the list.
# Target: T1, MBP-FoxP1dN (Mus musculus, UniProt P58462 326-579)
# T1 sequence: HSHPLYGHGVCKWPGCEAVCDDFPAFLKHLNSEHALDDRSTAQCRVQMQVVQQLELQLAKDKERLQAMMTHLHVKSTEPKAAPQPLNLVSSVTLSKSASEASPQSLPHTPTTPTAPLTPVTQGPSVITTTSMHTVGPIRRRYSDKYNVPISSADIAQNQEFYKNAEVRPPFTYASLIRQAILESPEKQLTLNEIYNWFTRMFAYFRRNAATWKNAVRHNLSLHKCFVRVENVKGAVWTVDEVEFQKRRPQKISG
# Test: PD-seq (MBP pull-down with sequencing); 20 mM Tris-HCl pH 7.5, 100 mM NaCl, 1.5 mM MgCl2, 0.4 uM protein, 0.1 uM dsDNA library, 30 min, room temperature, amylose pull-down; high values mean tight binding
# Settings: protein: recombinant; tags: His6-MBP; chain copies: 2; dsDNA, one strand shown
# Method in brief: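 Binding is reads-per-million enrichment of pull-down over input, with replicates pooled. It comes from 30 min room-temperature incubation in Tris pH 7.5 buffer with NaCl and MgCl2 of 0.4 µM His6-MBP-tagged, N-terminally truncated mouse FoxP3 or FoxP1 fragment from E. coli with 0.1 µM Klenow-filled degenerate double-stranded DNA library, followed by amylose resin capture, three washes and Illumina sequencing of the released DNA.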
row,Sequence,binding signal
1,GATGATTGTTCTCCCAGCTGATGAATTAACATCCTCGAGTAAACAAATTTTCCTAATCTTTCTGTTCAAGCGCCATCTAC,0.965 RPM ratio (pull-down/input)
2,GATGATTGTTCTCCCAGCTGATGAATTGAAAAAGTCGAGTAAACAAATTTTCCTAATCTTTCTGTTCAAGCGCCATCTAC,0.897 RPM ratio (pull-down/input)
3,GATGATTGTTCTCCCAGCTGATGAATTCCTCGCCTCGAGTAAACAAATTTTCCTAATCTTTCTGTTCAAGCGCCATCTAC,0.847 RPM ratio (pull-down/input)
4,GATGATTGTTCTCCCAGCTGATGAATTATCCAGCTCGAGTAAACAAATTTTCCTAATCTTTCTGTTCAAGCGCCATCTAC,0.881 RPM ratio (pull-down/input)
5,GATGATTGTTCTCCCAGCTGATGAATTTACACCATCGAGTAAACAAATTTTCCTAATCTTTCTGTTCAAGCGCCATCTAC,1.3 RPM ratio (pull-down/input)
6,GATGATTGTTCTCCCAGCTGATGAATTCGCCAGCTCGAGTAAACAAATTTTCCTAATCTTTCTGTTCAAGCGCCATCTAC,0.751 RPM ratio (pull-down/input)
7,GATGATTGTTCTCCCAGCTGATGAATTATAGAAATCGAGTAAACAAATTTTCCTAATCTTTCTGTTCAAGCGCCATCTAC,1.03 RPM ratio (pull-down/input)
8,GATGATTGTTCTCCCAGCTGATGAATTTCTATTTTCGAGTAAACAAATTTTCCTAATCTTTCTGTTCAAGCGCCATCTAC,2.01 RPM ratio (pull-down/input)
9,GATGATTGTTCTCCCAGCTGATGAATTTTTGAAGTCGAGTAAACAAATTTTCCTAATCTTTCTGTTCAAGCGCCATCTAC,0.919 RPM ratio (pull-down/input)
10,GATGATTGTTCTCCCAGCTGATGAATTGCACCTCTCGAGTAAACAAATTTTCCTAATCTTTCTGTTCAAGCGCCATCTAC,1.12 RPM ratio (pull-down/input)
11,GATGATTGTTCTCCCAGCTGATGAATTACACCTATCGAGTAAACAAATTTTCCTAATCTTTCTGTTCAAGCGCCATCTAC,1.14 RPM ratio (pull-down/input)
12,GATGATTGTTCTCCCAGCTGATGAATTCCGCGGATCGAGTAAACAAATTTTCCTAATCTTTCTGTTCAAGCGCCATCTAC,0.805 RPM ratio (pull-down/input)
13,GATGATTGTTCTCCCAGCTGATGAATTAATTAATTCGAGTAAACAAATTTTCCTAATCTTTCTGTTCAAGCGCCATCTAC,1.05 RPM ratio (pull-down/input)
14,GATGATTGTTCTCCCAGCTGATGAATTCCGAGCTTCGAGTAAACAAATTTTCCTAATCTTTCTGTTCAAGCGCCATCTAC,0.828 RPM ratio (pull-down/input)
15,GATGATTGTTCTCCCAGCTGATGAATTCGAGAAGTCGAGTAAACAAATTTTCCTAATCTTTCTGTTCAAGCGCCATCTAC,0.753 RPM ratio (pull-down/input)
16,GATGATTGTTCTCCCAGCTGATGAATTGCAGTAGTCGAGTAAACAAATTTTCCTAATCTTTCTGTTCAAGCGCCATCTAC,1.04 RPM ratio (pull-down/input)
17,GATGATTGTTCTCCCAGCTGATGAATTCATAGATTCGAGTAAACAAATTTTCCTAATCTTTCTGTTCAAGCGCCATCTAC,0.903 RPM ratio (pull-down/input)
18,GATGATTGTTCTCCCAGCTGATGAATTTGGTCTATCGAGTAAACAAATTTTCCTAATCTTTCTGTTCAAGCGCCATCTAC,0.952 RPM ratio (pull-down/input)
19,GATGATTGTTCTCCCAGCTGATGAATTGACGGGTTCGAGTAAACAAATTTTCCTAATCTTTCTGTTCAAGCGCCATCTAC,1.06 RPM ratio (pull-down/input)
20,GATGATTGTTCTCCCAGCTGATGAATTTAAAAAATCGAGTAAACAAATTTTCCTAATCTTTCTGTTCAAGCGCCATCTAC,1.01 RPM ratio (pull-down/input)

row,Sequence,binding signal
1,GATGATTGTTCTCCCAGCTGATGAATTAGAACTGTCGAGTAAACAAATTTTCCTAATCTTTCTGTTCAAGCGCCATCTAC,0.941 RPM ratio (pull-down/input)
2,GATGATTGTTCTCCCAGCTGATGAATTCAGCTCCTCGAGTAAACAAATTTTCCTAATCTTTCTGTTCAAGCGCCATCTAC,0.789 RPM ratio (pull-down/input)
3,GATGATTGTTCTCCCAGCTGATGAATTTGCGCATTCGAGTAAACAAATTTTCCTAATCTTTCTGTTCAAGCGCCATCTAC,1.35 RPM ratio (pull-down/input)
4,GATGATTGTTCTCCCAGCTGATGAATTGTTGGGCTCGAGTAAACAAATTTTCCTAATCTTTCTGTTCAAGCGCCATCTAC,1.2 RPM ratio (pull-down/input)
5,GATGATTGTTCTCCCAGCTGATGAATTGAATGAGTCGAGTAAACAAATTTTCCTAATCTTTCTGTTCAAGCGCCATCTAC,0.893 RPM ratio (pull-down/input)
6,GATGATTGTTCTCCCAGCTGATGAATTAGTAATGTCGAGTAAACAAATTTTCCTAATCTTTCTGTTCAAGCGCCATCTAC,1.16 RPM ratio (pull-down/input)
7,GATGATTGTTCTCCCAGCTGATGAATTGCGTCACTCGAGTAAACAAATTTTCCTAATCTTTCTGTTCAAGCGCCATCTAC,1.1 RPM ratio (pull-down/input)
8,GATGATTGTTCTCCCAGCTGATGAATTCCCCAGTTCGAGTAAACAAATTTTCCTAATCTTTCTGTTCAAGCGCCATCTAC,0.825 RPM ratio (pull-down/input)
9,GATGATTGTTCTCCCAGCTGATGAATTACGCCATTCGAGTAAACAAATTTTCCTAATCTTTCTGTTCAAGCGCCATCTAC,1.04 RPM ratio (pull-down/input)
10,GATGATTGTTCTCCCAGCTGATGAATTTTCTGCCTCGAGTAAACAAATTTTCCTAATCTTTCTGTTCAAGCGCCATCTAC,0.924 RPM ratio (pull-down/input)
11,GATGATTGTTCTCCCAGCTGATGAATTTTTTAATTCGAGTAAACAAATTTTCCTAATCTTTCTGTTCAAGCGCCATCTAC,1.05 RPM ratio (pull-down/input)
12,GATGATTGTTCTCCCAGCTGATGAATTAGACTCCTCGAGTAAACAAATTTTCCTAATCTTTCTGTTCAAGCGCCATCTAC,0.814 RPM ratio (pull-down/input)
13,GATGATTGTTCTCCCAGCTGATGAATTCCTAGCATCGAGTAAACAAATTTTCCTAATCTTTCTGTTCAAGCGCCATCTAC,0.919 RPM ratio (pull-down/input)
14,GATGATTGTTCTCCCAGCTGATGAATTATTACTCTCGAGTAAACAAATTTTCCTAATCTTTCTGTTCAAGCGCCATCTAC,1 RPM ratio (pull-down/input)
15,GATGATTGTTCTCCCAGCTGATGAATTCGACCCGTCGAGTAAACAAATTTTCCTAATCTTTCTGTTCAAGCGCCATCTAC,0.743 RPM ratio (pull-down/input)
16,GATGATTGTTCTCCCAGCTGATGAATTCTGAACCTCGAGTAAACAAATTTTCCTAATCTTTCTGTTCAAGCGCCATCTAC,0.722 RPM ratio (pull-down/input)
17,GATGATTGTTCTCCCAGCTGATGAATTAAGAACCTCGAGTAAACAAATTTTCCTAATCTTTCTGTTCAAGCGCCATCTAC,0.767 RPM ratio (pull-down/input)
18,GATGATTGTTCTCCCAGCTGATGAATTGCCGGTCTCGAGTAAACAAATTTTCCTAATCTTTCTGTTCAAGCGCCATCTAC,0.824 RPM ratio (pull-down/input)
19,GATGATTGTTCTCCCAGCTGATGAATTCTGTTATTCGAGTAAACAAATTTTCCTAATCTTTCTGTTCAAGCGCCATCTAC,1.78 RPM ratio (pull-down/input)
20,GATGATTGTTCTCCCAGCTGATGAATTAGGTGTCTCGAGTAAACAAATTTTCCTAATCTTTCTGTTCAAGCGCCATCTAC,0.877 RPM ratio (pull-down/input)
